# Article PMC12136788
# This is one part of the list.
# T1: UNK ZnF1-6 (called full-length) (human, UniProt Q9C0B0 30-357)
# T1 sequence: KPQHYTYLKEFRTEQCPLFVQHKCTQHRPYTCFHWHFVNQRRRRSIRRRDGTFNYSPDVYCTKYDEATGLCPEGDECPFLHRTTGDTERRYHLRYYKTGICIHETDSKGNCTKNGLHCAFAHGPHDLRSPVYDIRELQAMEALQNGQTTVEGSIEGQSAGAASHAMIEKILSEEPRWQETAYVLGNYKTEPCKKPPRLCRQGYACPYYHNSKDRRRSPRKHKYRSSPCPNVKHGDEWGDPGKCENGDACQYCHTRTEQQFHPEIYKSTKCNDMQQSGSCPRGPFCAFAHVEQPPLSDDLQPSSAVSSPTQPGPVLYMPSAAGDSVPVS
# B1: ENSG00000173757:stop:overlap|stop_codon|ENSG00000173757|stop_codon|NA|stop_codon (ssRNA)
# RNA: GGGAGUUCUACAGUCCGACGAUCACCAGGCCCCCUCCCCAGCUGUGUGUCCCCAGGCUCACUAUAACAUGUACCCACAGAAGUAGGUGGCAUUCUUGUGGGGGUCCACAGGGGAGGAACUGGGGGCUUGGCCCCAGGCUGGACCAACAGAGGAUUGAGCAUCA
# B2: ENSG00000070961:be:win_951|CDS|ENSG00000070961|bound_else_gene|NA|bound_elsewhere_windowed (ssRNA)
# RNA: GGGAGUUCUACAGUCCGACGAUCUGAGAAUCGCAACAAAGCAAAAGCCCAGGAUGGUGCAGCCAUGGAAAUGCAGCCAUUGAAGAGUGAAGAAGGUGGAGAUGGUGAUGAAAAAGAUAAAAAGAAAGCAAAUUUGCCAAAAAACAACAGAGGAUUGAGCAUCA
# B3: chr16:3727831:3727932:-|CDS|ENSG00000005339|unk|FALSE|bound_elsewhere (ssRNA)
# RNA: GGGAGUUCUACAGUCCGACGAUCCGUCUCACCCCAGACUGGUUCCCCCCACCCCGGACUCGCAGUCACCAUGGCCAGCUCCAUAGAUCAGGGACACUUGGGGAACCCCGAACAGAGUGCAAUGCUCCCCCAGCUGAACACCCCCAACAGAGGAUUGAGCAUCA
# B4: chr4:7762510:7762611:-|3pUTR|ENSG00000196526|msi1|total|mutant (ssRNA)
# RNA: GGGAGUUCUACAGUCCGACGAUCGUGCAAUAUUUCUUGGAGAAUUUGGAUGCCUAAGGCAUAAAGGAAAAAAACAGAGUUCACCGUUUGAGCUGGUAUUUACCCCCUGGGUUUAAAAAUCAGAUUAACUUCUUGGUCUCCCGGCAACAGAGGAUUGAGCAUCA
# B5: chr10:92030311:92030412:+|3pUTR|ENSG00000095564|unk|total|mutant (ssRNA)
# RNA: GGGAGUUCUACAGUCCGACGAUCAUAUAAGAUUGAAACUGUAAAAUAUAUGCAACUGUGUGUUAUUUGCCGGAAAUGGUCACCCGAAAGAGCAAAAGAUUAUUCAGGUAUACAGGUUUUUUUUCAUUGUUCCGGAUUUUAACUCAACAGAGGAUUGAGCAUCA
# B6: chr2:32377587:32377702:+|CDS|ENSG00000115760|unk|total|mutant (ssRNA)
# RNA: GGGAGUUCUACAGUCCGACGAUCGGUGAAAUGUCAGUAUAUCUCUGCUGUGGAUAAAGUUAUAUUUGUGGAUGAUUAUGCAGCCGGGUGCCGGAAGGACCUUAAUGGAAUCUUGUUGUCCGACACUGCUCUGCAAACUCCAGUCAACAGAGGAUUGAGCAUCA
# B7: chr1:193029531:193029688:-|CDS|ENSG00000116750|unk|total|mutant (ssRNA)
# RNA: GGGAGUUCUACAGUCCGACGAUCUUGAUAUCUUCACUUUUAUAUUUUACCGGUAAUUAAUAAUGCUUGUGCUACUCAAGCCACCGUGAGUGUGUUACUGAACUGUACCCACCAGGAUGUCCAUUCCGGCGAGACAUUAUCAGACAACAGAGGAUUGAGCAUCA
# B8: chr11:48137134:48137235:+|CDS|ENSG00000149177|msi1|FALSE|unique (ssRNA)
# RNA: GGGAGUUCUACAGUCCGACGAUCCACGUACUCCUACUGCCUUCUUAUUGAGAAGGCUGGAAAUUCCAGCAACGCAACACAAGUAGUCACGGACAUUGGAAUUACUGACGCUACAGUCACUGAAUUAAUACCUGGCUCAUCAUACAACAGAGGAUUGAGCAUCA
# B9: chr1:205337401:205337592:-|CDS|ENSG00000162873|control|control|control (ssRNA)
# RNA: GGGAGUUCUACAGUCCGACGAUCGAAGAACAAAUGGGAGAUCCUCCCUGCCAUGCCCACACCCCGCUGUGCCUGCUCCAGCAUAGUCGUCAAGAACUGCCUCCUCGCCGUGGGAGGUGUCAACCAGGGUCUGAGUGACGCAGUCAACAGAGGAUUGAGCAUCA
# B10: chr1:203709306:203709407:+|CDS|ENSG00000058668|msi1|FALSE|unique (ssRNA)
# RNA: GGGAGUUCUACAGUCCGACGAUCUCCAGAGAAGGAGGGAGGCCUGCCUCGGCAGGUGGGCAACAAGACCGAGUGUGCUCUGCUAGGCUUUGUCACAGAUCUGAAGCAGGAUUAUCAGGCUGUGCGUAAUGAAGUGCCCGAGGACAACAGAGGAUUGAGCAUCA
# B11: chr12:26337790:26337891:-|3pUTR|ENSG00000123104|unk|total|mutant (ssRNA)
# RNA: GGGAGUUCUACAGUCCGACGAUCAAGAUCUAUGCCGAAUAUAAAGGAAGCCUGAACCAAUCCUUCCACAUACUGUUAAGAUGCCGACUUGGAACAAAGCUGUUGGGACCCAGAGCAAUGAAUUUUUGAACUGAAGCUACUGGUCAACAGAGGAUUGAGCAUCA
# B12: ENSG00000131370:stop:overlap|stop_codon|ENSG00000131370|stop_codon|NA|stop_codon (ssRNA)
# RNA: GGGAGUUCUACAGUCCGACGAUCAGAAGUUAAAUCAGUCCACGGAUGAUAUCAACAGACGGGAGACUGAACUUGAGGUCCAGUAGGUGUUUGCAGAUCCCUUCUUAAGCCUCAACUGUGUUUCCUCGGUUUCCCCUGGCUGCACAACAGAGGAUUGAGCAUCA
# B13: chr2:32508095:32508220:+|CDS|ENSG00000115760|unk|total|mutant (ssRNA)
# RNA: GGGAGUUCUACAGUCCGACGAUCAGCCGAAGCCGCUUCUGCUGUCUGCCUCCGACUACAUCGUCCACGGGAUGCCAGCACAUCCGGCCUUUCACAAAUUAAAUUAUUGGGGCUCACUGCUUUUGGUACCACCUCUUCUGCAACCAACAGAGGAUUGAGCAUCA
# B14: chr7:94910433:94910544:+|CDS|ENSG00000158528|unk|total|mutant (ssRNA)
# RNA: GGGAGUUCUACAGUCCGACGAUCCUGGAAAAAACAGAUGGCUCAGUUGUUAAGUUGGAGUCUUCUGUUUCUGAACGAAUCCGCCGAUUUGACACUAUGUACGAUGGCCCUUCAUAUUCCAAGUUCACUGAGACUCGAAAGAUGCAACAGAGGAUUGAGCAUCA
# B15: ENSG00000170522:stop:overlap|stop_codon|ENSG00000170522|stop_codon|NA|stop_codon (ssRNA)
# RNA: GGGAGUUCUACAGUCCGACGAUCUCUGCCAUUUCUUCUUUGAGGCCUACAUCGGCAAAAUGAGGAAAACAACGAAAGCUGAAUAGUGUUGGAACUGAGGAGGAAGCCAUAGCUCAGGGUCAUCAAGAAAAAUAAUAGACAAAACAACAGAGGAUUGAGCAUCA
# B16: chr7:74121655:74121756:+|3pUTR|ENSG00000106683|msi1|total|mutant (ssRNA)
# RNA: GGGAGUUCUACAGUCCGACGAUCGCCCCUUUCCACACGCCGCUGCCCCAGCAACCCUGUUCACGCUCCACCUGUCUGGUCCACCGCUCCCUGGAGGCUGGGCCAGGAGGCAGCCUCCGAACCAUGCCCCAUAUAACGCUUGGGCAACAGAGGAUUGAGCAUCA
# B17: chr1:246839951:246840052:-|3pUTR|ENSG00000153207|msi1|FALSE|bound_elsewhere (ssRNA)
# RNA: GGGAGUUCUACAGUCCGACGAUCAAAUGUAAAAUAAAUCUGUUUAUGGAUAUUGAGUGCAUCUUGUAUGUGCCUAAUAUUGAUAGGAUGAGAUGUCUGAACAAAUUUUUAUAAUAUUGCUGUGAAGGAGCUUGCUAUUGAACCCAACAGAGGAUUGAGCAUCA
# B18: chr1:45660537:45660647:-|5pUTR|ENSG00000159592|unk|total|mutant (ssRNA)
# RNA: GGGAGUUCUACAGUCCGACGAUCAUUUUUGAUCUAUUACCUUGAUGACAUUAUUUGUCCACACUUGAGCCCAUCUGUCUUUCCCGCUAUGACCUUGUUAUGAACAGUAUUUGCACUCGGUGCAAAUAUCCAUGUCUUACCUAACAACAGAGGAUUGAGCAUCA
# B19: chr13:20822168:20822271:-|CDS|ENSG00000132953|unk|total|mutant (ssRNA)
# RNA: GGGAGUUCUACAGUCCGACGAUCUCGAAAAAUCAGAGAAGAUUCAGAUAUGGCACAAGAUUCUCUGCAGUGCCUUGCCCAGUCCGCUUCUCUUCAUGGACCCAUCUUCCCAGAUGAAGGAUCACAAGUUGAUUAUCCCGCACACAACAGAGGAUUGAGCAUCA
# B20: chr2:147927148:147927248:+|CDS|ENSG00000121989|msi1_unk|total|mutant (ssRNA)
# RNA: GGGAGUUCUACAGUCCGACGAUCUGAAACCAUUGAAGAAUGUUGGGAUCACGACGCAGAAGCCAGGUUAUCAGCUGGAUGUGCCGGUGAAAGAAUUACCCAGAUGCAGAGACUAACAAAUAUUAUUACCACAGAGGACAUUGUCAACAGAGGAUUGAGCAUCA
# B21: chr2:46903789:46903890:-|3pUTR|ENSG00000180398|msi1|FALSE|unique (ssRNA)
# RNA: GGGAGUUCUACAGUCCGACGAUCAAAUUUCUGCAGCUGGCUUGAAUUUCUCCCCAGAAAAUGGGUUUUUCUUUUCUAUUGCAUAGUCAGGCUGCAAAUUUCCAAACUUUUAUGCUUUGCUUCCCUUAUUUAUAAGGGAAUGCCCAACAGAGGAUUGAGCAUCA
# B22: chr12:100341478:100341579:+|3pUTR|ENSG00000136021|unk|FALSE|unique (ssRNA)
# RNA: GGGAGUUCUACAGUCCGACGAUCCUAUUCUCCUAUUGCUAAAUGUGUGAUAUAUAGAGAGGAUGUAUAAAAGGAAAUGGAAAUAGACUAUGUACUUGUCUGGUUUUUGUUUGUUUUUAUUUUGGAAUGCUUAUAAGCCUCCUUCAACAGAGGAUUGAGCAUCA
# Molecular target: T1, UNK ZnF1-6 (called full-length)
# Test: nsRBNS (natural sequence RNA bind-n-seq); RBNS binding buffer (assumed for nsRBNS): 25 mM Tris pH 7.5, 150 mM KCl, 3 mM MgCl2, 0.01% Triton X-100, 500 ug/ml BSA, 20 U/ml SUPERase-In, 4 C; UNK is unkempt and MSI1 is Musashi-1; names of the RNAs are library labels; protein concentration not given here; high values mean tight binding
row,Binder,binding signal
1,B1,0.566 enrichment R
2,B2,0.532 enrichment R
3,B3,0.891 enrichment R
4,B4,0.35 enrichment R
5,B5,0.491 enrichment R
6,B6,0.557 enrichment R
7,B7,0.805 enrichment R
8,B8,0.545 enrichment R
9,B9,0.869 enrichment R
10,B10,0.724 enrichment R
11,B11,0.436 enrichment R
12,B12,0.85 enrichment R
13,B13,0.577 enrichment R
14,B14,0.403 enrichment R
15,B15,0.591 enrichment R
16,B16,1.17 enrichment R
17,B17,0.5 enrichment R
18,B18,0.322 enrichment R
19,B19,0.431 enrichment R
20,B20,0.932 enrichment R
21,B21,0.757 enrichment R
22,B22,0.31 enrichment R
